# Residue numbers refer to the chain shown, from its start. No constants are given. Whether binding was seen depends on the method and setting. Some entries that bind do so weakly or less than the wild type.
# Protein sequences, listed by entry. Tags and fused reporters are not part of them. Lines headed by an entry give the natural chain unless they say otherwise; changes in a name come on top. Residues count along the entry.
# UniProt Q8N109: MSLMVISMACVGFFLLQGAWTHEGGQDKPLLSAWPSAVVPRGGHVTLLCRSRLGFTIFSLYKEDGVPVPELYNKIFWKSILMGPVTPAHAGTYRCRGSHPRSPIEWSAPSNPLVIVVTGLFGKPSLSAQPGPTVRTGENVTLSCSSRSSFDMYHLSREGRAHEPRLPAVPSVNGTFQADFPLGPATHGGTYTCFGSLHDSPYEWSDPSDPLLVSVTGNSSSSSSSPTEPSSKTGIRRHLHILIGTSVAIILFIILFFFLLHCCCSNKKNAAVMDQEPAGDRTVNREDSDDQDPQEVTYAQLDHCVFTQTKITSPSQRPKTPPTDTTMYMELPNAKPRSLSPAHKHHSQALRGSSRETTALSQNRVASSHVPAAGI
# UniProt Q99706, residues 22-377: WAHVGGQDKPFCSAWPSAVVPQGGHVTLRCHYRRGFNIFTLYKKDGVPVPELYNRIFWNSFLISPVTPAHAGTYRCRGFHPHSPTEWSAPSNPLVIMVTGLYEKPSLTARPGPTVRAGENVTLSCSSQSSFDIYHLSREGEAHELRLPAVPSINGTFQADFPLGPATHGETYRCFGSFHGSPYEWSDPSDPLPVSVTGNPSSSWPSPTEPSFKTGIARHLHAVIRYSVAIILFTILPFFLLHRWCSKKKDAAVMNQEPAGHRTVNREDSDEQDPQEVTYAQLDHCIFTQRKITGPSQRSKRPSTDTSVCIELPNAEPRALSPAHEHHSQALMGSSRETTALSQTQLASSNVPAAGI
# UniProt Q8N743, residues 26-410: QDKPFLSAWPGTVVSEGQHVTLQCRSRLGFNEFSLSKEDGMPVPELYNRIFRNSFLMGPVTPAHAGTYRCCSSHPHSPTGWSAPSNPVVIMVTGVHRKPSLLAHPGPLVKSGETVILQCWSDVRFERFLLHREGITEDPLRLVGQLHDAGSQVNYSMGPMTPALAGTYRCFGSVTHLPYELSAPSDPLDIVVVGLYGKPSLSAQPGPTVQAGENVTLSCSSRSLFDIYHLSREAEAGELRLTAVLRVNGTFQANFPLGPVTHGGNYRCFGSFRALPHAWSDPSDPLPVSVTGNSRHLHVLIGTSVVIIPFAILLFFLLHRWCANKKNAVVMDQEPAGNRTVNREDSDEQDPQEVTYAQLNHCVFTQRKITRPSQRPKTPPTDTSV
# UniProt Q8NHK3: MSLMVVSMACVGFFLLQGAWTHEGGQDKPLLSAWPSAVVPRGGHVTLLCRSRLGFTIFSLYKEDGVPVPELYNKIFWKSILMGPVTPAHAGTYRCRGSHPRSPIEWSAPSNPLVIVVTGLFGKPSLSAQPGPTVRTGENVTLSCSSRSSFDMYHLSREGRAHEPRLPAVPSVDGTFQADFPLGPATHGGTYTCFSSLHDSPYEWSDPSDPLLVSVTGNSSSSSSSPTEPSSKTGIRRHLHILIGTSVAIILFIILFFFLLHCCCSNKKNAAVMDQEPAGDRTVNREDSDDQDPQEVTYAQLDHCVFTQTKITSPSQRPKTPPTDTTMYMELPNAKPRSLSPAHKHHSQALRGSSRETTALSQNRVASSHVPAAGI
# B1: anti-KIR2DL5 mAb clone B7B23 (antibody, V domains shown)
# VH: QVQLQQSGAELVRPGVSVKISCKGSGYTFTDYTMHWVKQSHAKSLEWIGVISPYYGDASYNQKFKGKATMTVDKSSSTAYMELARLTSEDSAIYYCARGLLRGFAYWGQGTLVTVS
# VL: DIVMTQSPSSKDMSVGQKVTMRCKSSKSLLNSSNQKKYLAWYQQKPGQSPKLLVYFASIRESGVPDRFIGSGSGTDFTLTISSVQVEDLADYFCQQHYSTPWTFGGG
# B2: anti-KIR2DL5 mAb clone B11B4 (antibody, V domains shown)
# VH: QVQLQQSGGELVKPGASVKMSCKAFGYTFTSFPIEWMKQNHGKSLEWIGNFHPYNDDTKYNEKFNGKAKLTAETSSKTVYLELSRLTSDDCSVYYCARGSDYSFGLDYWGQGTSVTVSS
# VL: GIVLTQSPASLVVSLGQRATISCRASESVDSYGYSFMHWYQQKPGQPPKLLIYRASNLKSGIPARFSGSGCRTDFTLTINPVEADDVATYYCQQSNEDPWTFGGGTKAGN
# B3: anti-KIR2DL5 mAb clone F8B30 (antibody, V domains shown)
# VH: QIQLVQSGPELKKPGETVKISCKASGYTFTDYSMHWVKQAPGKGLKWMGWINTETGGPTYADDFKGRFAFSLETSATTAYLQINNLKNEDTATYFCSRDVDLYFDYWGQGTTLTVS
# VL: DIQMTQSPASLSASVGETVTITCRTSENIYSYLAWYQQKQGKSPQLLVYNAKTLVEGVPSRFSGSGSGTQFSVKINSLQPEDFGNYYCQHHYGIPFTFGGGTKLEIK
# B4: anti-KIR2DL5 mAb clone B2A18 (antibody, V domains shown)
# VH: QIQLVQSGPEVKKPGETVKISCKASGYTFTKYGMNWVKQAPGKGLKWMGWINTNTGESTYAEDFKGRFAFSLETSANTAFLQINNLKNEDTAAYFCARWGPYGSSLYYGMDYWGQGTSVTVS
# VL: DIQMTQSSSSFSISLGDRVTITCRASEDLYNRLAWYQQKPGNAPRLLISGATSLETGVPSRFSGSGSGKDFTLSIPSVQTEDVGTYYCQQYRYTPWTFGGGTTLN
# B5: anti-KIR2DL5 mAb clone B33C12 (antibody, V domains shown)
# VH: B2 VH with G9A, Y54S, C91S, S92A, G105A
# VL: GIVLTQSPASLAVSLGQRATISCRASESVDSYGYSFMHWYQQKPGQPPKLLIYRASNLKSGIPARFSGSGSRTDFTLTINPVEADDVATYYCQQSNEDPWTFGGGTKLEIK
# Legend:
# [1] = biological target: KIR2DL5 wild type (KIR2DL5A*001) expressed on cells (human) (UniProt Q8N109); assay: flow cytometry, 5 µg/ml mAb on transduced 3T3 cells
# [2] = biological target: KIR2DL5B*003 allele expressed on 3T3 cells (human) (UniProt Q8N109); assay: flow cytometry, 3T3 cells expressing KIR2DL5 alleles, mAb 5 µg/ml
# [3] = biological target: KIR2DL5 wild type (KIR2DL5A*001) expressed on cells (human) (UniProt Q8N109); assay: as above
# [4] = biological target: KIR2DL4 expressed on 3T3 cells (human) (UniProt Q99706); assay: flow cytometry, transduced 3T3 cells
# KIR2DL3 = assay: flow cytometry, transduced 3T3 cells
# KIR3DL1 = assay: flow cytometry, transduced 3T3 cells
# [5] = biological target: KIR3DL3 expressed on 3T3 cells (human) (UniProt Q8N743); assay: flow cytometry, transduced 3T3 cells
# KIR3DL2 = assay: flow cytometry, transduced 3T3 cells
# KIR2DL2 = assay: flow cytometry, transduced 3T3 cells
# KIR2DL1 = assay: flow cytometry, transduced 3T3 cells
# [6] = biological target: KIR2DL5 wild type (KIR2DL5A*001) expressed on cells (human) (UniProt Q8N109); assay: high-throughput flow cytometry (hybridoma selection)
# [7] = biological target: KIR2DL5A*005 allele expressed on 3T3 cells (human) (UniProt Q8NHK3); assay: flow cytometry, 3T3 cells expressing KIR2DL5 alleles
# [8] = biological target: KIR2DL5 D0 variant T46S expressed on 3T3 cells (human) (UniProt Q8N109); assay: flow cytometry, 3T3 cells expressing KIR2DL5 D0 variants, mAb 5 µg/ml
# [9] = biological target: KIR2DL5 D0 variant R52H expressed on 3T3 cells (human) (UniProt Q8N109); assay: as above
# [10] = biological target: KIR2DL5 D0 variant G97S expressed on 3T3 cells (human) (UniProt Q8N109); assay: as above
# [11] = biological target: KIR2DL5 D0 variant P112S expressed on 3T3 cells (human) (UniProt Q8N109); assay: as above
# [12] = biological target: KIR2DL5 wild type (KIR2DL5A*001) expressed on cells (human) (UniProt Q8N109); assay: flow cytometry, transduced 3T3 cells, mAb 5 µg/ml
# [13] = biological target: KIR2DL5A*005 allele expressed on 3T3 cells (human) (UniProt Q8NHK3); assay: flow cytometry, 3T3 cells expressing KIR2DL5 alleles, mAb 5 µg/ml
# [14] = biological target: D2-deleted KIR2DL5 expressed on 3T3 cells (human) (UniProt Q8N109); assay: flow cytometry, transduced 3T3 cells, mAb 5 µg/ml
# [15] = biological target: KIR2DL5B*003 allele expressed on 3T3 cells (human) (UniProt Q8N109); assay: flow cytometry, transduced 3T3 cells, mAb 5 µg/mL
# [16] = biological target: KIR2DL5B*003 allele expressed on 3T3 cells (human) (UniProt Q8N109); assay: flow cytometry, 5 µg/mL mAb on 3T3 cells transduced with the allele
# [17] = biological target: KIR2DL5B*003 allele expressed on 3T3 cells (human) (UniProt Q8N109); assay: flow cytometry, 5 µg/mL mAb on 3T3 cells expressing the allele
# [18] = biological target: KIR2DL5-Ig fusion protein (KIR2DL5 extracellular domain fused to human IgG1 Fc) (human) (UniProt Q8N109); assay: biolayer interferometry (Octet), KIR2DL5-Ig on anti-human Fc sensors, mAb in solution
Binder,binding [1],binding [2],binding [3],binding [4],binding (KIR2DL3),binding (KIR3DL1),binding [5],binding (KIR3DL2),binding (KIR2DL2),binding (KIR2DL1),binding [6],binding [8],binding [9],binding [10],binding [11],binding [12],other results
B1,binds,binds,binds,no binding (tested: 5 µg/ml),no binding (tested: 5 µg/ml),no binding (tested: 5 µg/ml),no binding (tested: 5 µg/ml),no binding (tested: 5 µg/ml),no binding (tested: 5 µg/ml),no binding (tested: 5 µg/ml),binds,binds,binds,binds,binds,binds,binding [7]: no binding (tested: 5 µg/ml)
B2,binds,binds,binds,no binding (tested: 5 µg/ml),no binding (tested: 5 µg/ml),no binding (tested: 5 µg/ml),no binding (tested: 5 µg/ml),no binding (tested: 5 µg/ml),no binding (tested: 5 µg/ml),no binding (tested: 5 µg/ml),binds,binds,binds,binds,binds,binds,binding [13]: binds; binding [14]: binds
B3,,,,no binding (tested: 5 µg/mL),no binding (tested: 5 µg/mL),no binding (tested: 5 µg/mL),no binding (tested: 5 µg/mL),no binding (tested: 5 µg/mL),no binding (tested: 5 µg/mL),no binding (tested: 5 µg/mL),,,,,,,binding [15]: binds; binding [16]: binds; binding [17]: binds; binding [18]: binds
B4,,binds,,no binding (tested: 5 µg/ml),no binding (tested: 5 µg/ml),no binding (tested: 5 µg/ml),no binding (tested: 5 µg/ml),no binding (tested: 5 µg/ml),no binding (tested: 5 µg/ml),no binding (tested: 5 µg/ml),,,,,,,
B5,,binds,,no binding (tested: 5 µg/ml),no binding (tested: 5 µg/ml),no binding (tested: 5 µg/ml),no binding (tested: 5 µg/ml),no binding (tested: 5 µg/ml),no binding (tested: 5 µg/ml),no binding (tested: 5 µg/ml),,,,,,,

# — US20250019435A1
